{"source": "the supplement of paper PMC9446081", "note": "In all, about 39,000 compounds went through this assay and about 220 (0.56%) showed activity. The list shows a part of the results.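 Further: static incubation at 37 °C against the wild-type strain, values averaged over two biological replicates.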"}
{"system": "Escherichia coli K-12 BW25113", "assay": "relative growth (OD600 normalised to plate interquartile mean) (fraction); higher = less growth inhibition, active = 0.2 or less", "conditions": "50 µM; LB; incubation time: overnight (16-24 h)"}
{"molecule": "C[C@H]1CCCCO[C@@H](CN(C)S(=O)(=O)c2ccccc2)[C@@H](C)CN([C@@H](C)CO)C(=O)c2cc(NS(=O)(=O)c3cn(C)cn3)ccc2O1", "relative growth": "inactive: 0.96"}
{"molecule": "CCOC[C@@H](O)CS(=O)(=O)c1ccccn1", "relative growth": "inactive: 1.03"}
{"molecule": "C[C@@H]1CCCCO[C@H](CN(C)C(=O)Nc2ccc(F)cc2)[C@@H](C)CN([C@H](C)CO)C(=O)c2cc(NC(=O)NC3CCCCC3)ccc2O1", "relative growth": "inactive: 1"}
{"molecule": "C[C@H](CO)N1C[C@H](C)[C@@H](CN(C)S(=O)(=O)c2cn(C)cn2)Oc2c(NC(=O)CCC(F)(F)F)cccc2C1=O", "relative growth": "inactive: 1.01"}
{"molecule": "C[C@@H]1CN([C@H](C)CO)S(=O)(=O)c2ccc(C#Cc3ccccc3)cc2O[C@H]1CN(C)C(=O)Cc1ccccn1", "relative growth": "inactive: 1.01"}
{"molecule": "Cc1noc(C)c1NC(=O)Nc1ccc2c(c1)C(=O)N([C@H](C)CO)C[C@H](C)[C@@H](CN(C)Cc1ccc(Cl)c(Cl)c1)O2", "relative growth": "inactive: 0.989"}
{"molecule": "COc1ccc(S(=O)(=O)Nc2cccc3c2O[C@@H](CN(C)C(=O)NC(C)C)[C@H](C)CN([C@H](C)CO)C3=O)cc1", "relative growth": "inactive: 0.978"}
{"molecule": "COc1ccccc1CNC(=O)C[C@@H]1C[C@@H]2c3cc(NS(=O)(=O)c4ccc(F)cc4)ccc3O[C@@H]2[C@@H](CO)O1", "relative growth": "inactive: 1"}
{"molecule": "CN1CCN([C@H](CNC(=O)C(=O)NCCN2CCOCC2)c2ccc(N(C)C)cc2)CC1", "relative growth": "inactive: 0.971"}
{"molecule": "C[C@@H]1CCCCO[C@@H](CN(C)Cc2ccncc2)[C@@H](C)CN([C@@H](C)CO)C(=O)c2cc(NC(=O)Nc3ccccc3)ccc2O1", "relative growth": "inactive: 1.02"}
{"molecule": "Cc1ccc(OC(=O)N(C)C[C@@H]2OCc3ccccc3-c3ccccc3C(=O)N([C@H](C)CO)C[C@H]2C)cc1", "relative growth": "inactive: 1.02"}
{"molecule": "C=CCC[C@@H](Cc1ccc(F)cc1)C(=O)O[C@@H](CNC(=O)[C@@H](CC=C)CC(=O)N(CCO)Cc1ccccc1)c1ccccc1", "relative growth": "inactive: 1.12"}
{"molecule": "CO[C@H]1CN(C)C(=O)c2cc(NC(=O)C3CC3)ccc2OC[C@H](C)N(C(=O)Cc2ccccn2)C[C@@H]1C", "relative growth": "inactive: 0.977"}
{"molecule": "C[C@@H]1CN([C@H](C)CO)C(=O)CCCn2cc(nn2)CO[C@H]1CN(C)C(=O)Nc1cccc(C(F)(F)F)c1", "relative growth": "inactive: 0.985"}
{"molecule": "C[C@@H]1CN([C@H](C)CO)C(=O)c2cc(NS(=O)(=O)c3ccccc3)ccc2O[C@@H](C)CCCCO[C@H]1CN(C)Cc1ccccc1", "relative growth": "inactive: 1.01"}
{"molecule": "C[C@@H]1CCCCO[C@H](CN(C)C(=O)Nc2ccc(C(F)(F)F)cc2)[C@H](C)CN([C@H](C)CO)C(=O)c2cc(NC(=O)CCC(F)(F)F)ccc2O1", "relative growth": "inactive: 0.987"}
{"molecule": "C[C@@H]1CN([C@@H](C)CO)S(=O)(=O)c2ccc(-c3ccc(C#N)cc3)cc2O[C@@H]1CN(C)C(=O)CN(C)C", "relative growth": "inactive: 1.01"}
{"molecule": "CCOC(=O)/C=C(C)/C=C/C=C(C)/C=C/c1c(C)cc(OC)c(C)c1C", "relative growth": "inactive: 1.02"}
{"molecule": "O=S(=O)(c1ccccc1)N1CCN(CCO)CC1", "relative growth": "inactive: 1"}
{"molecule": "O=C(C[C@@H]1C=C[C@H](NS(=O)(=O)c2ccccc2)[C@H](CO)O1)NCc1ccncn1", "relative growth": "inactive: 0.998"}
{"molecule": "COc1ccc(S(=O)(=O)Nc2cccc3c2O[C@@H](CN(C)Cc2ccc(Cl)c(Cl)c2)[C@@H](C)CN([C@H](C)CO)C3=O)cc1", "relative growth": "inactive: 1.01"}
{"molecule": "CO[C@H](CN(C)S(=O)(=O)c1cccc(Cl)c1)[C@@H](C)CN([C@H](C)CO)S(=O)(=O)c1cccc(Cl)c1", "relative growth": "inactive: 1.04"}
{"molecule": "CC(C)NC(=O)Nc1ccc2c(c1)C(=O)N([C@@H](C)CO)C[C@@H](C)[C@@H](CN(C)Cc1ccc(Cl)c(Cl)c1)OCCCC[C@@H](C)O2", "relative growth": "inactive: 0.993"}
{"molecule": "O=C1CSC(=Nc2nccs2)N1", "relative growth": "inactive: 0.916"}
{"molecule": "C[C@@H]1CN([C@@H](C)CO)C(=O)c2cc(NS(C)(=O)=O)ccc2O[C@@H](C)CCCCO[C@H]1CN(C)S(=O)(=O)c1cn(C)cn1", "relative growth": "inactive: 0.99"}
{"molecule": "C=CC1=C(C)C(=Cc2[nH]c(Cc3[nH]c(C=C4NC(=O)C(C)=C4C=C)c(C)c3CCC(=O)O)c(CCC(=O)O)c2C)NC1=O", "relative growth": "inactive: 1.09"}
{"molecule": "COc1ccc(NC(=O)N(C)C[C@@H]2OCCCC[C@@H](C)Oc3ccc(NC(=O)c4ccccc4)cc3C(=O)N([C@@H](C)CO)C[C@@H]2C)cc1", "relative growth": "inactive: 1.02"}
{"molecule": "C[C@H](CO)N1C[C@H](C)[C@@H](CN(C)Cc2ccc(Oc3ccccc3)cc2)Oc2ccc(NC(=O)Cc3cn(C)c4ccccc34)cc2C1=O", "relative growth": "inactive: 1.02"}
{"molecule": "C[C@H](CO)N1C[C@H](C)[C@H](CN(C)Cc2ccccc2)Oc2ccc(NC(=O)CCCN(C)C)cc2C1=O", "relative growth": "inactive: 1.01"}
{"molecule": "CCCNC(=O)N1C[C@H](O)COC[C@H]2O[C@H](CC(=O)NCCCN3CCOCC3)CC[C@@H]21", "relative growth": "inactive: 0.998"}
{"molecule": "C[C@H]1CN([C@@H](C)CO)C(=O)Cc2cc(NC(=O)Nc3ccccc3)ccc2O[C@@H]1CN(C)Cc1ccc(Oc2ccccc2)cc1", "relative growth": "inactive: 1.03"}
{"molecule": "COc1ccc(NC(=O)N2CCCCN3[C@H](CN(C)C(C)=O)[C@H](c4ccc(C#Cc5ccccc5)cc4)[C@@H]3C2)cc1", "relative growth": "inactive: 0.994"}
{"molecule": "COc1ccc(NC(=O)N(C)C[C@H]2OCCCC[C@@H](C)Oc3ccc(NS(=O)(=O)c4ccc(OC)cc4)cc3C(=O)N([C@H](C)CO)C[C@@H]2C)cc1", "relative growth": "inactive: 1.01"}
{"molecule": "CC(C)NC(=O)N(C)C[C@@H]1Oc2cc(C#Cc3cccc(F)c3)ccc2S(=O)(=O)N([C@H](C)CO)C[C@@H]1C", "relative growth": "inactive: 1"}
{"molecule": "CNC(=O)C[C@@H]1CC[C@@H]2[C@H](COC[C@H](O)CN2C(=O)Nc2cccc(OC)c2)O1", "relative growth": "inactive: 0.999"}
{"molecule": "c1ccc2c(-c3cn[nH]c3)ccnc2c1", "relative growth": "inactive: 0.843"}
{"molecule": "Cc1noc(C)c1NC(=O)Nc1cccc2c1O[C@@H](CN(C)Cc1ccc(Oc3ccccc3)cc1)[C@H](C)CN([C@@H](C)CO)C2=O", "relative growth": "inactive: 0.991"}
{"molecule": "O=C1OCCN1N=Cc1ccc([N+](=O)[O-])o1", "relative growth": "active: 0.0457"}
{"molecule": "CO[C@@H](C(=O)N(C)C[C@H]1OCc2ccccc2-c2c(n(C)c3ccccc23)C(=O)N([C@@H](C)CO)C[C@@H]1C)c1ccccc1", "relative growth": "inactive: 1.01"}
{"molecule": "CN(C)S(=O)(=O)N1Cc2nnn(C)c2[C@H](COCC2CC2)C1", "relative growth": "inactive: 0.963"}
{"molecule": "O=C(CCc1cn(-c2ccc(C[C@H]3C(=O)O[C@@H](Cc4ccccc4)[C@H]4C=C(/C=C/C5CC5)CN43)cc2)nn1)NO", "relative growth": "inactive: 0.995"}
{"molecule": "C[C@H](CO)N1C[C@H](C)[C@@H](CN(C)CC2CCCCC2)Oc2c(NC(=O)Cc3cn(C)c4ccccc34)cccc2C1=O", "relative growth": "inactive: 0.964"}
{"molecule": "COc1ccc(CCNC(=O)[C@@]2(Sc3ccc(C)cc3)CC(=O)N(Cc3ccccc3C(F)(F)F)[C@@H]2c2ccc(CO)cc2I)cc1", "relative growth": "inactive: 1"}
{"molecule": "C[C@@H]1CN([C@@H](C)CO)C(=O)Cc2cc(NC(=O)c3ccncc3)ccc2O[C@H]1CN(C)S(=O)(=O)c1cn(C)cn1", "relative growth": "inactive: 1.01"}
{"molecule": "CC[C@@H]1COCCC(=O)N1", "relative growth": "inactive: 1"}
{"molecule": "O=C(Nc1cc(Cl)cc(Cl)c1O)c1c(O)c(Cl)cc(Cl)c1Cl", "relative growth": "inactive: 0.565"}
{"molecule": "COc1ccc(CN(C)C[C@H]2Oc3c(NC(=O)Nc4cccc5ccccc45)cccc3C(=O)N([C@@H](C)CO)C[C@H]2C)cc1", "relative growth": "inactive: 1.01"}
{"molecule": "C[C@@H]1CN([C@H](C)CO)C(=O)CCCn2nncc2CO[C@H]1CN(C)S(=O)(=O)c1ccc(-n2cccn2)cc1", "relative growth": "inactive: 0.999"}
{"molecule": "COc1ccc(S(=O)(=O)N(C)C[C@@H]2Oc3ncc(-c4cccc(OC)c4)cc3C(=O)N([C@H](C)CO)C[C@@H]2C)cc1", "relative growth": "inactive: 1"}
{"molecule": "Cc1ccc(-c2ccc3c(c2)O[C@@H](CN(C)C(=O)Nc2ccc(C(F)(F)F)cc2)[C@H](C)CN([C@@H](C)CO)S3(=O)=O)cc1", "relative growth": "inactive: 0.735"}
{"molecule": "C[C@H](CO)N1C[C@H](C)[C@@H](CN(C)C(=O)Nc2cccc3ccccc23)Oc2c(NC(=O)Nc3ccc4c(c3)OCO4)cccc2C1=O", "relative growth": "inactive: 1.01"}
{"molecule": "C[C@H](CO)N1C[C@H](C)[C@@H](CN(C)Cc2ccc(C(F)(F)F)cc2)OCCCC[C@H](C)Oc2ccc(NC(=O)Nc3ccc(F)cc3)cc2C1=O", "relative growth": "inactive: 0.973"}
{"molecule": "Cn1c(=O)c2c(NCCO)ccnc2n(C)c1=O", "relative growth": "inactive: 0.995"}
{"molecule": "COc1ccc(S(=O)(=O)Nc2cccc3c2O[C@H](CN(C)C(=O)NC(C)C)[C@@H](C)CN([C@H](C)CO)C3=O)cc1", "relative growth": "inactive: 1.01"}
{"molecule": "CC(C)NC(=O)N(C)C[C@@H]1Oc2c(NS(=O)(=O)c3ccc(Cl)cc3)cccc2C(=O)N([C@@H](C)CO)C[C@@H]1C", "relative growth": "inactive: 1.09"}
{"molecule": "O=C(C[C@H]1CC[C@@H]2[C@H](COC[C@H](O)CN2S(=O)(=O)c2ccc(Cl)cc2)O1)NCCN1CCCC1", "relative growth": "inactive: 0.992"}
{"molecule": "Cc1noc(C)c1S(=O)(=O)Nc1ccc2c(c1)C(=O)N([C@H](C)CO)C[C@H](C)[C@H](CN(C)C(=O)Nc1ccc(C(F)(F)F)cc1)OCCCC[C@H](C)O2", "relative growth": "inactive: 0.94"}
{"molecule": "CCS(=O)(=O)N1CC[C@]2(CC1)CN(Cc1ccccc1OC)[C@@H](CO)c1c2c2ccc(cc2n1C)OC", "relative growth": "inactive: 1.03"}
{"molecule": "COc1ccc(NC(=O)Nc2ccc3c(c2)CC(=O)N([C@H](C)CO)C[C@H](C)[C@H](CN(C)C(=O)Nc2cccc4ccccc24)O3)cc1", "relative growth": "inactive: 0.963"}
{"molecule": "C[C@@H]1CCCCO[C@@H](CN(C)C(=O)NC2CCCCC2)[C@@H](C)CN([C@@H](C)CO)C(=O)c2cc(NS(=O)(=O)c3ccc(F)cc3)ccc2O1", "relative growth": "inactive: 0.991"}
{"molecule": "CCS(=O)(=O)N1CC[C@@H]2CO[C@H](CN3CCN(C)CC3)[C@@H]2C1", "relative growth": "inactive: 0.937"}
